# Measurements reported in PubChem BioAssay AID504332 (National Center for Advancing Translational Sciences (NCATS), 2011).
# In all, about 350,000 compounds went through this assay and about 31,000 (8.9%) were called active. The inconclusive results got no clear call from the source; some entries with a clear call stand among them for comparison. Calls follow the shape of the dose curve; as a rule, active = well fitted inhibition curve with a large enough effect; inconclusive = small, poorly fitted or top-dose-only effect; inactive = no such curve, though single readings can be large or run the other way. Potencies beside an inconclusive call are fits to weak or partial responses and may not hold up.
# Molecular target: Histone-lysine N-methyltransferase EHMT2 (Homo sapiens) (UniProt Q96KQ7)
# Sequence of UniProt Q96KQ7 (Q96KQ7 whole entry, looked up): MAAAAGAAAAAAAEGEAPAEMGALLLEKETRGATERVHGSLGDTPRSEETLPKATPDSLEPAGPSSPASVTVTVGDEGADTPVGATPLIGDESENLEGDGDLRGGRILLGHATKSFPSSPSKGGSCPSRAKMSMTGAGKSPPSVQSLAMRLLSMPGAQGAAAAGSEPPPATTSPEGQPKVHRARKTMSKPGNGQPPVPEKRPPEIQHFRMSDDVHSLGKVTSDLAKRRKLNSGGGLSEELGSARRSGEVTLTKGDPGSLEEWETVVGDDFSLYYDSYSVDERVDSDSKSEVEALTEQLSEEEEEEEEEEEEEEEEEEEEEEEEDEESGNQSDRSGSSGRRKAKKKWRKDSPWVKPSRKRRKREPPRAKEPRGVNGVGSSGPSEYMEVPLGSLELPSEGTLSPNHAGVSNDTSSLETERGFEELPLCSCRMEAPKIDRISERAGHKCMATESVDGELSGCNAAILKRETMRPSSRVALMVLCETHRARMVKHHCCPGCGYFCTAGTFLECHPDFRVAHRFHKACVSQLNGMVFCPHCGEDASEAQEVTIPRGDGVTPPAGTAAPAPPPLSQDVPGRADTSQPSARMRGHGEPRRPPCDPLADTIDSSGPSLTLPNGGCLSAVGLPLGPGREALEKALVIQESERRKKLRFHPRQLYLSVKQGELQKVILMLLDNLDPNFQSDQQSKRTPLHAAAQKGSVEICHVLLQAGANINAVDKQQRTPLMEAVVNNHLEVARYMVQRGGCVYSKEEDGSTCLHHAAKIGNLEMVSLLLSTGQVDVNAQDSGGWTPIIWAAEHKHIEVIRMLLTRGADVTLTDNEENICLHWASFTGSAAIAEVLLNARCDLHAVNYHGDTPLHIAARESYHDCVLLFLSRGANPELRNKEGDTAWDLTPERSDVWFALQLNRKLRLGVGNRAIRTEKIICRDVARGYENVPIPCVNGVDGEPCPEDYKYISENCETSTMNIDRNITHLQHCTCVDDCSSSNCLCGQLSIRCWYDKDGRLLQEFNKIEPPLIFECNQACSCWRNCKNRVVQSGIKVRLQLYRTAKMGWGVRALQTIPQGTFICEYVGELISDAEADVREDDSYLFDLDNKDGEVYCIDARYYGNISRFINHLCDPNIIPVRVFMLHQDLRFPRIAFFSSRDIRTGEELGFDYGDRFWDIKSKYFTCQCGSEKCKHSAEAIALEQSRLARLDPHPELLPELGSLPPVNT
# Test: qHTS Assay for Inhibitors of Histone Lysine Methyltransferase G9a; also: nearly all actives have a fitted effect of over 75% in size
# Conditions: G9a H3K9 monomethylation, AlphaScreen, 2 h; activity, negative = inhibition: at 59 µM (top of the series) unless noted
# Outline: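 Using a bead-based AlphaScreen, monomethylated H3K9 product from 2 h room-temperature reactions (G9a 20 nM, peptide 500 nM, SAM 20 uM) was detected with 0.5 ug/mL rabbit anti-H3K9me1 antibody.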
# % is scaled to controls: 0 for no effect and ±100 for the full control effect; potency is read from the fitted curve at half-maximal effect; tags tell the direction and shape of the fitted curve.
Compound,"activity, negative = inhibition",Potency
CC(=O)c1ccc(NC(=O)c2cnn3ccccc23)cc1,inactive: 1.62% [at 102 µM],–
CCN(CC)CCCNC(=O)c1ccc2c(c1)NC(=O)C(CS(=O)(=O)Cc1cccc(Br)c1)N2 (centres undefined),–,"inconclusive: 35.5 µM [inhibitor, single point]"
CC(C)CN(CCCNC(=O)CN1C(=O)COc2ccc(S(=O)(=O)N3CCOCC3)cc21)CC(C)C,–,"inconclusive: 79.4 µM [inhibitor, single point]"
O=C(CSc1nnnn1-c1cccc2ccccc12)NC(C(=O)O)(c1ccccc1)c1ccccc1,–,"inconclusive: 50.1 µM [inhibitor, partial curve]"
Cc1cccc(OCCSc2nc3ccccc3n2CC(=O)O)c1,inactive: -6.39% [at 0.501 µM],–
O=[N+]([O-])c1ccc(CSc2nnc3ccccn23)cc1,–,"inconclusive: 25.1 µM [inhibitor, partial curve]"
CCOc1ccccc1NC(=O)Nc1ccc(Br)cn1,inactive: -3.77% [at 102 µM],–
O=C(Cn1c(N2CCN(c3ccccc3)CC2)nc2ccccc21)c1ccccc1,–,active: 50.1 µM
CC(OC(=O)c1nsc(Cl)c1Cl)C(=O)NCc1ccco1 (centres undefined),–,"inconclusive: 89.1 µM [inhibitor, single point]"
Cc1cc(NC(=O)Cc2cc(F)cc(F)c2)no1,inactive: 29.4% [at 0.501 µM],–
Cc1cccc2cc(C(c3nnnn3Cc3ccc4c(c3)OCO4)N3CCCC3)c(=O)[nH]c12 (centres undefined),–,active: 17.8 µM
Cc1nc2ccccn2c1/C(O)=C1\C(=O)C(=O)N(CCN2CCOCC2)C1c1ccncc1 (centres undefined),–,"inconclusive: 22.4 µM [inhibitor, full curve, poor fit]"
COc1cc(O)cc2occ(-c3ccc(O)cc3)c(=O)c12,inconclusive: -73% [inhibitor],–
COc1ccc(CC(=O)Nc2cc(S(=O)(=O)N3CCCCC3)ccc2C)cc1,–,"inconclusive: 79.4 µM [inhibitor, single point]"
CC(C)CNC(=O)C(=O)Nc1ccc(N(C)C)cc1,–,"inconclusive: 20 µM [inhibitor, single point]"
O=C(Nc1cccc2cccnc12)c1ccc(Br)o1,–,"inconclusive: 20 µM [inhibitor, single point]"
COc1ccc(CCCc2n[nH]c(=S)o2)cc1,–,"inconclusive: 39.8 µM [inhibitor, single point]"
O=S(=O)(c1ccccc1)c1nc(-c2ccco2)oc1N1CCCCC1,–,"inconclusive: 35.5 µM [inhibitor, single point]"
NNC(=O)c1ccc(NS(=O)(=O)c2ccc(Br)cc2)cc1,–,"inconclusive: 28.2 µM [inhibitor, single point]"
CC(C)c1ccc(NC(=O)CSc2ncccc2C(=O)Oc2cccc([N+](=O)[O-])c2)cc1,–,active: 50.1 µM
O=C(Nc1ccc(-c2cn3ccsc3n2)cc1)C1CCCC1,–,"inconclusive: 56.2 µM [inhibitor, partial curve, poor fit]"
N#Cc1cccc(NC(=O)N2CC3(CCN(C(=O)c4cc(C(F)(F)F)cc(C(F)(F)F)c4)CC3)C2)c1,inactive: -6.17% [at 12.7 µM],–
Cc1ccc(SCC(=O)N=C2NC(=O)CS2)cc1,–,"inconclusive: 28.2 µM [inhibitor, partial curve, poor fit]"

Compound,"activity, negative = inhibition",Potency
COc1ccc(C(=O)COC(=O)c2ccccn2)cc1OC,–,"inconclusive: 6.31 µM [inhibitor, single point]"
COc1ccc2nc(NC(=O)Cn3cnc4c(=O)n(C)c(=O)n(C)c43)sc2c1,inconclusive: -76.6% [inhibitor],–
Cc1c(O)c(CN2CCCC2)cc2c3c(c(=O)oc12)CCC3,inactive: -27.9% [at 102 µM],–
Cc1cc(C)n(-c2nc3ccccc3c(=O)n2OCC#N)n1,inactive: 7.52% [at 102 µM],–
O=[N+]([O-])c1ccc(N2CCCC2)cc1NC(c1ccccc1)c1ccccc1,–,"inconclusive: 14.1 µM [inhibitor, partial curve]"
Cc1ccc(NC(=O)C2CCCN2S(=O)(=O)c2cccc3nsnc23)cc1Cl (centres undefined),–,"inconclusive: 28.2 µM [inhibitor, partial curve, poor fit]"
COc1ccccc1CNC(=O)COC(=O)c1cccnc1SCC(=O)NCc1ccccc1OC,–,"inconclusive: 50.1 µM [inhibitor, partial curve, poor fit]"
CC(=O)c1sc(=S)n(-c2ccc(Cl)cc2)c1C,–,"inconclusive: 50.1 µM [inhibitor, partial curve, poor fit]"
C=CCC(C)(NCc1ccccc1)c1ccco1 (centres undefined),–,active: 12.6 µM
CCCOc1ccc(CN(CCC#N)C(=S)NC(=O)c2ccccc2)cc1,–,"inconclusive: 1 µM [inhibitor, full curve]"
CCOc1ccc(CNCc2ccccc2Cl)cc1,inactive: 1.27% [at 102 µM],–
CC(C)Cc1nnc(NC(=O)c2cccc(S(=O)(=O)N3CCOCC3)c2)s1,inactive: -40.2%,–
CCOc1ccc(CC(=O)C2C(=O)CCCC2=O)cc1OCC,–,active: 11.2 µM
Cc1ccc(Nc2nc(-c3c(C)nc4ccccn34)cs2)cc1,–,"inconclusive: 3.98 µM [inhibitor, full curve, poor fit]"
Fc1ccc2[nH]c3c(NCCN4CCOCC4)ncnc3c2c1,–,"inconclusive: 79.4 µM [inhibitor, partial curve, poor fit]"
COc1ccc(C(=O)CSc2n[nH]c(C)n2)cc1[N+](=O)[O-],–,"inconclusive: 89.1 µM [inhibitor, single point]"
COc1ccc(C)cc1NC(=O)CCS(=O)(=O)c1ccc2c(c1)CCN2C(C)=O,–,"inconclusive: 44.7 µM [inhibitor, partial curve]"
Cc1cccc(CN2C(=O)c3ccccc3Sc3ccc(C(=O)NCc4cccs4)cc32)c1,inactive: 4.44%,–
COc1ccc(C(=O)N2CCCC2)cc1,–,"inconclusive: 6.31 µM [inhibitor, single point]"
Cc1ccc(-c2nnn(CC(=O)N(c3ccccc3F)C(C(=O)NC3CCCC3)c3ccco3)n2)o1 (centres undefined),–,"inconclusive: 79.4 µM [inhibitor, single point]"
CCOc1cc2[nH]c(=S)n(Cc3ccc(C(=O)NCCN(CC)CC)cc3)c(=O)c2cc1OCC,–,active: 35.5 µM
C=CCOc1ccc2c(c1)C(=NO)c1cc(OCC=C)ccc1-2,inactive: -17% [at 102 µM],–
COc1ccccc1NC(=O)Cn1nc(Cc2cccnc2)c2ccccc2c1=O,–,"inconclusive: 79.4 µM [inhibitor, single point]"

Compound,"activity, negative = inhibition",Potency
COc1ccc(CCNC(=O)CN(C)S(=O)(=O)c2ccc3nc(C)sc3c2)cc1OC,inactive: -2.8% [at 102 µM],–
O=[N+]([O-])c1cc(-c2n[nH]c(-c3ccccc3)n2)cc([N+](=O)[O-])c1,–,"inconclusive: 56.2 µM [inhibitor, partial curve, poor fit]"
Cc1cccc(NC(=O)Nc2c(C)n(C)n(-c3ccccc3)c2=O)c1,inactive: 45.7% [at 0.501 µM],–
Cc1ccc(CSCc2ccc(C(=O)NC3CCCC3)o2)cc1,inactive: 16.9%,–
CCN(CC)C(=O)CSc1nnc(-c2ccccc2)o1,–,active: 79.4 µM
Cc1cccc(C(=O)Nc2nnc(S(=O)(=O)N3CCCc4ccccc43)s2)c1,–,"inconclusive: 2.24 µM [inhibitor, full curve, poor fit]"
COc1ccccc1CNC(=O)CSc1ccc(-c2ccncc2)nn1,inactive: -0.486% [at 102 µM],–
Cc1ccc(Nc2nc(C)c(NC(=O)c3ccc(C)cc3)c(Nc3ccc(C)cc3)n2)cc1,–,"inconclusive: 17.8 µM [inhibitor, single point]"
O=C(Nc1ccc2c(c1)OCO2)c1cc(-c2cccc(O)c2)on1,–,"inconclusive: 17.8 µM [inhibitor, partial curve, poor fit]"
CCc1cccc(C)c1NC(=O)C(CC)Sc1nncn2c1cc1occc12 (centres undefined),inactive: -0.207%,–
O=C(NC(=S)Nc1ccc2[nH]c(=O)[nH]c2c1)c1cccc(F)c1,–,"inconclusive: 89.1 µM [inhibitor, single point]"
CCOc1ccc(NC(=O)CCNS(=O)(=O)c2cccc3nsnc23)cc1,–,"inconclusive: 39.8 µM [inhibitor, single point]"
COc1ccc(CCC(=O)Nc2cccc(S(=O)(=O)N3CCCCCC3)c2)cc1,–,"inconclusive: 50.1 µM [inhibitor, partial curve]"
CC(=O)c1ccc2c(c1)N(CCCN1CCN(CCO)CC1)c1ccccc1S2,inconclusive: -62.7% [inhibitor] [at 2.33 µM],–
CCOC(=O)N1CCC(NC(=S)Nc2ccc3nc(N4CCN(C)CC4)cc(C)c3c2)CC1,–,"inconclusive: 28.2 µM [inhibitor, full curve]"
Cn1c2ccccc2c(=O)c2c(=O)n(Cc3ccco3)c(-c3ccc(F)cc3)nc21,–,"inconclusive: 89.1 µM [inhibitor, single point]"
O=C(NC1CCCC1)c1cc(-c2ccccc2O)on1,–,"inconclusive: 100 µM [inhibitor, single point]"
COc1ccc(-c2nc(CN3CCN(C(=O)c4ccco4)CC3)c(C)o2)cc1OC,–,active: 56.2 µM
N/C(=N\N=C\c1ccc2c(c1)OCO2)SC1CC(=O)N(c2ccc(C(=O)O)cc2)C1=O (centres undefined),–,"inconclusive: 79.4 µM [inhibitor, partial curve]"
O=C(Cn1nc(-c2cccc(Cl)c2)ccc1=O)NCC1COCCO1 (centres undefined),inactive: -4.85% [at 102 µM],–
COC(=O)CN1C(=O)C(O)=C(C(C)=O)C1c1ccc([N+](=O)[O-])cc1 (centres undefined),–,"inconclusive: 31.6 µM [inhibitor, single point]"
Cc1[nH]c2ccccc2c1/C=C/c1nc2ccccc2c(=O)n1-c1cccc([N+](=O)[O-])c1,–,"inconclusive: 1 µM [inhibitor, full curve]"
COc1ccc2[nH]cc(CCn3ccc(O)c(C/C=C/c4ccccc4)c3=O)c2c1,–,"inconclusive: 25.1 µM [inhibitor, single point]"
